Data taken from the supplement of paper PMC12217912.
This is one part of the list. The full chains were built here from the parent and the listed change. Values near 0.05 are background.

B1: TEV protease; numbered along this chain (parent)
chain: MGESLFKGPRDYNPISSSICHLTNESDGHTTSLYGIGFGPFIITNKHLFRRNNGTLVVQSLHGVFKVKDTTTLQQHLVDGRDMIIIRMPKDFPPFPQKLKFREPQREERICLVTTNFQTKSMSSMVSDTSCTFPSGDGIFWKHWIQTKDGQCGSPLVSTRDGFIVGIHSASNFTNTNNYFTSVPKNFMELLTNQEAQQWVSGWRLNADSVLWGGHKVFMVKPEEPFQPVKEATQL

Variants of: B1
Assay: raw area under fraction-flipped curve 0-4 h after induction (AUC4h, not background-subtracted), DNA-recorder readout of cleavage of the substrate (dimensionless); higher = more cleavage of the substrate by the protease variant
Conditions: temperature: 34 °C; time window: 0-4 h after rhamnose induction
Experimental: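 In vivo DNA recorder in E. coli TOP10(DE3) ΔrhaA at 34 °C. Each TEVp single-site mutant (parent TEVp 0) is paired with a single-site variant of the 7-mer TEVs (canonical ENLYFQ|S). The substrate sits between flexible linkers in a Bxb1-sfGFP-TEVs-SsrA fusion, so cleavage stabilises Bxb1 and speeds flipping of a recombination array, read by NGS. The value is the raw area under the fraction-flipped curve over 0-4 h after rhamnose induction (AUC4h), with ≥20 reads per time point. It is not background-subtracted; inactive controls average about 0.047.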
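Note: Bxb1 expression induced with 0.2% (w/v) L-rhamnose at OD600 near 0.5, cultures sampled hourly, flipped fraction per protease–substrate barcode pair counted by paired-end Illumina sequencing.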

Row | Variant | area with substrate ANLYFQS | area with substrate CNLYFQS | area with substrate GNLYFQS | area with substrate HNLYFQS | area with substrate INLYFQS | area with substrate KNLYFQS | area with substrate LNLYFQS | area with substrate NNLYFQS | area with substrate PNLYFQS | area with substrate TNLYFQS | area with substrate VNLYFQS | area with substrate WNLYFQS | area with substrate YNLYFQS | area with substrate MNLYFQS | area with substrate SNLYFQS | area with substrate FNLYFQS | area with substrate RNLYFQS | area with substrate DNLYFQS | area with substrate QNLYFQS
1 | F41L | 0.0612 | 0.0596 | 0.0813 | 0.0612 | 0.0555 | 0.067 | 0.0646 | 0.0631 | 0.0601 | 0.0627 | 0.0649 | 0.0509 | 0.0493 |  |  |  |  |  | 
2 | D69R | 0.0691 | 0.0654 | 0.0785 | 0.0659 | 0.0689 | 0.0585 | 0.0612 | 0.061 | 0.0479 | 0.0592 | 0.0594 | 0.061 |  | 0.0509 | 0.0614 |  |  |  | 
3 | P9W | 0.0631 | 0.0641 | 0.0615 | 0.0656 | 0.0673 | 0.0665 |  |  |  | 0.0713 | 0.0647 | 0.0653 |  | 0.0741 | 0.0898 | 0.073 | 0.0897 |  | 
4 | H76S | 0.0547 |  | 0.0679 | 0.0553 | 0.0586 |  | 0.0577 | 0.0807 | 0.0645 | 0.0663 | 0.054 | 0.0537 | 0.0544 | 0.0625 | 0.0688 | 0.0524 |  | 0.0791 | 
5 | F117G | 0.0696 | 0.0518 | 0.0554 |  | 0.0608 | 0.0768 |  | 0.0668 | 0.0728 |  |  | 0.0532 | 0.0654 | 0.08 |  |  | 0.045 |  | 
6 | M122L | 0.0857 |  |  | 0.048 | 0.0631 | 0.0614 |  | 0.0696 | 0.0865 | 0.067 |  | 0.0571 |  |  | 0.0797 | 0.072 |  | 0.0988 | 
7 | G214A | 0.0658 |  | 0.0534 | 0.043 | 0.0409 | 0.0606 |  | 0.0905 |  | 0.0584 |  | 0.0586 | 0.0527 | 0.072 | 0.0628 | 0.0642 | 0.0661 | 0.067 | 
8 | L205E | 0.0952 | 0.0775 | 0.045 |  | 0.0685 |  | 0.0651 |  | 0.0705 |  |  | 0.0504 |  |  | 0.0642 |  |  |  | 0.0512
9 | K68Q | 0.0648 | 0.0441 |  |  | 0.0576 | 0.0657 | 0.0075 | 0.0927 |  | 0.0547 | 0.0592 | 0.0581 | 0.0511 | 0.0649 |  | 0.0675 |  |  | 
10 | K68L | 0.061 | 0.0531 |  | 0.0511 | 0.0556 | 0.0782 | 0.0813 | 0.0555 | 0.0674 | 0.0551 | 0.0613 | 0.0597 | 0.0587 | 0.0611 | 0.0616 | 0.0602 | 0.0581 |  | 
11 | T119H | 0.063 |  |  | 0.0676 | 0.0593 | 0.0762 | 0.0719 |  | 0.0901 | 0.0306 |  | 0.0625 |  |  |  |  |  | 0.0592 | 
12 | T70W | 0.0588 | 0.0585 | 0.0445 | 0.06 | 0.0643 | 0.0655 | 0.0501 | 0.0541 | 0.0621 | 0.0603 |  | 0.0559 | 0.0604 | 0.0644 | 0.0592 | 0.0648 |  |  | 
13 | V183Y | 0.0556 | 0.0693 |  | 0.0592 | 0.0731 | 0.0696 | 0.0619 | 0.0627 | 0.0581 | 0.0552 |  | 0.0278 |  | 0.0554 |  | 0.0519 |  |  | 0.0736
14 | V183E | 0.0385 | 0.0493 | 0.0501 |  | 0.0408 | 0.0484 | 0.0455 | 0.0426 |  |  | 0.0577 |  | 0.0464 | 0.0498 | 0.0507 | 0.047 |  |  | 
15 | C20T | 0.0576 |  | 0.0535 | 0.0582 | 0.0523 | 0.0608 | 0.0666 | 0.0731 | 0.0624 | 0.0617 |  | 0.0699 | 0.0598 | 0.0642 | 0.0555 | 0.0591 | 0.0406 | 0.0894 | 0.0753
16 | Y179T | 0.0683 | 0.0595 | 0.0572 | 0.0481 |  |  |  | 0.0632 |  | 0.0638 | 0.044 |  |  |  |  |  |  |  | 
17 | R106H | 0.0663 | 0.0743 | 0.0624 | 0.0289 | 0.0614 | 0.0634 | 0.0427 | 0.0595 | 0.0744 | 0.0608 |  | 0.0634 |  | 0.0494 |  | 0.0677 |  |  | 
18 | F95G | 0.0537 |  | 0.0207 | 0.0576 |  | 0.0427 | 0.0581 | 0.0562 |  | 0.0472 |  | 0.0692 |  | 0.0507 | 0.0415 |  | 0.0571 | 0.0576 | 
19 | F95W | 0.0763 | 0.0649 |  | 0.0588 |  | 0.0975 | 0.0589 |  |  | 0.0895 |  | 0.0722 | 0.0522 | 0.0527 | 0.0648 | 0.0622 |  |  | 
20 | N13D | 0.0607 |  | 0.0619 | 0.0613 | 0.0697 | 0.0663 | 0.0678 | 0.0608 | 0.0689 | 0.0694 | 0.0621 | 0.0611 | 0.0604 |  | 0.0722 | 0.053 | 0.0437 | 0.0895 | 
21 | S18I | 0.0529 | 0.0649 | 0.081 |  | 0.0524 |  | 0.0611 | 0.0744 |  | 0.0574 |  | 0.0609 |  | 0.0533 |  | 0.069 | 0.0431 |  | 
22 | K230T | 0.0731 | 0.0723 | 0.0556 |  | 0.0704 | 0.0596 | 0.0643 | 0.0522 |  | 0.0617 | 0.057 | 0.0562 | 0.0579 | 0.0612 | 0.0685 | 0.0708 |  |  | 
23 | E103W | 0.0569 | 0.0525 | 0.0646 | 0.0671 |  | 0.0648 | 0.0399 | 0.053 | 0.0535 | 0.0632 | 0.0576 | 0.0521 |  | 0.0505 | 0.0595 | 0.0585 | 0.104 |  | 
24 | S124E | 0.062 |  | 0.0601 | 0.0269 | 0.0655 | 0.0681 | 0.0497 | 0.0686 | 0.0887 | 0.0779 |  | 0.0426 | 0.0656 | 0.0705 | 0.063 |  |  | 0.075 | 
25 | E3S | 0.075 | 0.0736 | 0.0721 | 0.0805 | 0.0677 | 0.0744 | 0.0596 | 0.0731 |  | 0.068 |  | 0.0572 | 0.0557 |  | 0.0748 |  |  |  | 
26 | N206T | 0.0548 | 0.0876 |  | 0.0613 | 0.0785 | 0.0573 |  | 0.0725 | 0.0661 | 0.0608 |  | 0.0833 |  |  | 0.065 | 0.0673 |  |  | 
27 | S127Y | 0.065 | 0.0807 |  |  |  |  | 0.0571 | 0.0692 |  | 0.0648 |  | 0.0541 | 0.0651 | 0.0689 | 0.0804 |  |  |  | 
